assay: soluble on expression in E. coli; label from the status in PepcDB or PDB records

| Substance | soluble on expression in E. coli |
| --- | --- |
| AHHHHHHGSAIWQGRSLKKPSGGRIVLARKKRKRELGREPSNTRVAEQDKRKIIRTYGGNRKVRLTAAAYANVFDKSGKGRKVRIIRVIENPANRQFARRNIITKGAIIETEIGKAKVTSRPGQDGVVNAILLEE | not soluble |
| APDFCLEPPYDGPCRALHLRYFYNAKAGLCQTFYYGGCLAKRNNFESAEDCMRTC | soluble |
| GEDAIPGSWPWQVSLQDKTGFHFCGGSLISEDWVVTAAHCGVKTSDVVVAGEFDQGSDEENIQVLKIAQVFKNPKFNMFTVRNDITLLKLATPAQFSETVSAVCLPNVDDDFPPGTVCATTGWGKTKY | soluble |
| MESMKPMYRSRSWRRKYVRTPGGRVVVHFERKKPKIAHCAICGRPLNGIPRGRPVEMRKLPKTKKRPERPMPYLCPRCMRRVMKEQIRSQIMKGLEHHHHHH | not soluble |
| MGAYKYMQEIWRKKQSDALRYLLRIRTWHYRQLSAVHRVPRPTRPEKARRLGYRAKQGFVVYRVRVRRGNRKRPVCKGQTYGKPKTHGVNELKNAKSKQAVAEGRAGRRLGSLRVLNSYWVAEDSTYKFYEVVLIDPFHKAIRRNPDTQWITKPVHKHREQRGLTSAGRKSRGLGKGWRFSATRGGSQAKNWKRKNTKVFHRKR | not soluble |
| MGSDKIHHHHHHMIKITKGLDLPIAGMPLQQISPAPAVKRVALLGEEYVGMRPAMAVKEGDRVKKGQILFEDKKIPGVCFTAPASGIVSAIHRGERRVLQSVVIDIEGNDAVAFTRYAADALAELPRDTVQQQLLASGQWTALRTRPFSKTPLPGSTPAAIFVNAMDTNPLAAEPQPIILAERAAFDAGLTVLTRLTDGKVHVCQPSGGKLGGHPLGQVCFNQFSGPHPAGLPGTHIHFLEPVSLNKQVWHLNYQDAIAIGKLFLDGELYCERIIALGGPQVTSPRLVKTTLGASLEDLLAGELQEGENRVISGSVLSGARAHGPHAFLGRFHLQVSVVKEGREKELFGWVMPGKEKFSITRTTLGHFFKRKRFHFSTDTNGGERAMVPIGNYERVMPLDILPTILLRDLLAGDTDSAQALGCLELDEEDLALCTYVCPGKYEYGPALRSVLTRIEQEG | not soluble |
| MLALEAAQLDGPHFSCLYPDGVFYDLDSCKHSSYPDSEGAPDSLWDWTVAPPVPATPYEAFDPAAAAFSHPQAAQLCYEPPTYSPAGNLELAPSLEAPGPGLPAYPTENFASQTLVPPAYAPYPSPVLSEEEDLPLDSPALEVSDSESDEALVAGPEGKGSEAGTRKKLRLYQFLLGLLTRGDMRECVWWVEPGAGVFQFSSKHKELLARRWGQQKGNRKRMTYQKLARALRNYAKTGEIRKVKRKLTYQFDSALLPAVRRA | soluble |
| MLTRWWRKRSSPLPNNENRIMTIKHTQDLAQIRAMVPEMRRVKAIHFIGIGGAGMSGIAEVLLNEGYQISGSDLAANAVTDRLADKGATIFIGHEAHNVAHASVVVVSTAINEQNPEIQAAREKRIPIVRRAEMLAELMRFRHGIAVAGTHGKTTTTALVTQIYSEAGLDPTFVNGGLVKSAGTNARLGSSRILIAEADESDASFLHLQPMVTIVTNIEADHMDTYGGDFENLKQTFIDFLHNLPFYGQAILCIDDPVIRELIPRVSRQVITYGFSEDADVRIENYRQNGQQGQFTVVRKGKANLDITLNIPGRHNALNAAAAIAVATEDDIRDEAILRAMANTQGTGRRFDHLGEFETGNGVAMLVDDYGHHPTEVDVTIKAARNGWAEKRLVMIFQPHRYTRTRDLYDDFANVLEQVDVLIMLDVYAAGEKPIAGADGRSLCRTIRSRGKIDPIFVPDSQTLPSVLANILQDGDLVLTQGAGDVGKVARHLAALELNIGRMQQI | soluble |
| MMAAKKRVTAAKDKWKLKQWYIIYAPDFFGGVEVGLTPADDPEKVMNRVVEVTLKDITGDFTKGHVKLYFQVYDVKGQNAYTKFKGMKLARSYIRSLVRRRTTRIDGIFNITTKDGYRLRVMAMAIAMRRIQTSQERAIRKIMQEIIYKKAEELNFKDFVLEAVNGKIAAEIAKEGKKIYPLKKAEIRKIKVLGEPEAALEHHHHHH | soluble |
| MPEGFIKAGQRPSLSGTPLVSANQGVTGMPVSAFTVILSKAYPAIGTPIPFDKILYNRQQHYDPRTGIFTCQIPGIYYFSYHVHVKGTHVWVGLYKNGTPVMYTYDEYTKGYLDQASGSAIIDLTENDQVWLQLPNAESNGLYSSEYVHSSFSGFLVAPM | soluble |
| MSGPGIEGLAVGLNKGHAATQLPVKQRQNRHKGVASKKTKIVRELVREITGFAPYERRVLEMLRISKDKRALKFLKRRIGTHRRAKGKREELQNVIIAQRKAHK | not soluble |
| MSLKITELHLYAHPLPVRDGPYRMASTEVWSLDTTLVKLVTDSGLIGWGETCPVGPVYQPQHAAGARAALAEMAPGLIGADPLQPLRLQRRMDGLLNGHRYAKAAIDIAAHDLMGKAWGVRVADLLGGAVTERVPSYYASGVGEPDEIARIAAERADEGYPRMQVKIGGRPVEIDIETIRKVWERVGTRMRLAVDGNRGLTTRDALRLSRECPEIPFILEQPCNSIEEIAAIRGQLHHAVYLDETAEDVATVLRAVGQGVCDGFGMKVTRIGGLRPMAVFRDICEVRSMPHTCDDAWGGDIIAAACTHIGATVQPRLMEGVWLAQPYIEGHFDPENGLRIEGGHIRLPEGPGLGIVPDESLFGAPVASFGEGHHHHHH | not soluble |
| MYPRELKWGVAHIYSSFNNTHVHITDLTGAETVARVTGGMVVKADREKPSPYAAMIAASRAAQKAMERGIAAIHIKVRAPGGHGPKTPGPGAQAAIRALARAGFIIGRIEDVTPIPHDTTRRPGGRRGRRV | soluble |
| RCSHHWGYGKHNGPEHWHKDFPIANGERQSPVDIDTKAVVQDPALKPLALVYGEATSRRMVNNGHSFNVEYDDSQDKAVLKDGPLTGTYRLVQFHFHWGSSDDQGSEHTVDRKKYAAELHLVHWNTKYGDFGTAAQQPDGLAVVGVFLKVGDANPALQKVLDALDSIKTKGKSTDFPNFDPGSLLPNVLDYWTYPGSLTTPPLLESVTWIVLKEPISVSSQQMLKFRTLNFNAEGEPELLMLANWRPAQPLKNRCVRGFPK | soluble |
| VSCRRMSTATTVAPAGIPATPGPVNPPPPEVSNPSKPGRKTNQLQYMQNVVVKTLWKHQFAWPFYQPVDAIKLNLPDYHKIIKNPMDMGTIKKRLENNYYWSASECMQDFNTMFTNCYIYNKPTDDIVLMAQALEKIFLQKVAQMPQEEVELLPPAPKGKGRKPAAGAQSAGTQQVAAVSSVSPATPFQSVPPTVSQTPVIAATPVPTITANVTSVPVPPAAAPPPPATPIVPVVPPTPPVVKKKGVKRKADTTTPTTSAITASRSESPPPLSDPKQAKVVARRESGGRPIKPPKKDLEDGEVPQHAGKKGKLSEHLRYCDSILREMLSKKHAAYAWPFYKPVDAEALELHDYHDIIKHPMDLSTVKRKMDGREYPDAQGFAADVRLMFSNCYKYNPPDHEVVAMARKLQDVFEMRFAKMPDEPVEAPALPAPAAPMVSKGAESSRSSEESSSDSGSSDSEEERATRLAELQEQLKAVHEQLAALSQAPVNKPKKKKEKKEKEKKKKDKEKEKEKHKVKAEEEKKAKVAPPAKQAQQKKAPAKKANSTTTAGRQLKKG[gap - about 80 residues]QRKPFSASGKKQAAKSKEELAQEKKKELEKRLQDVSGQLSSSKKPARKEKPGSAPSGGPSRLSSSSSSESGSSSSSGSSSDSSDSE | soluble |
